Data from PubChem BioAssay AID504339 (National Center for Advancing Translational Sciences (NCATS), 2011).
Among all 390,000 compounds or so, about 17,000 (4.4%) were called active. Inconclusive means that the source gave no clear call. Such entries were picked first, then a sample of the others. The call rests on the fitted dose curve; in most records, active means well fitted inhibition curve with a large enough effect; inconclusive means small, poorly fitted or top-dose-only effect; inactive means no such curve, though single readings can be large or run the other way. Potencies beside an inconclusive call are fits to weak or partial responses and may not hold up.

Target: Lysine-specific demethylase 4A (Homo sapiens) (UniProt O75164)
Chain of UniProt O75164 (O75164 whole entry, looked up, the tested form may be a part): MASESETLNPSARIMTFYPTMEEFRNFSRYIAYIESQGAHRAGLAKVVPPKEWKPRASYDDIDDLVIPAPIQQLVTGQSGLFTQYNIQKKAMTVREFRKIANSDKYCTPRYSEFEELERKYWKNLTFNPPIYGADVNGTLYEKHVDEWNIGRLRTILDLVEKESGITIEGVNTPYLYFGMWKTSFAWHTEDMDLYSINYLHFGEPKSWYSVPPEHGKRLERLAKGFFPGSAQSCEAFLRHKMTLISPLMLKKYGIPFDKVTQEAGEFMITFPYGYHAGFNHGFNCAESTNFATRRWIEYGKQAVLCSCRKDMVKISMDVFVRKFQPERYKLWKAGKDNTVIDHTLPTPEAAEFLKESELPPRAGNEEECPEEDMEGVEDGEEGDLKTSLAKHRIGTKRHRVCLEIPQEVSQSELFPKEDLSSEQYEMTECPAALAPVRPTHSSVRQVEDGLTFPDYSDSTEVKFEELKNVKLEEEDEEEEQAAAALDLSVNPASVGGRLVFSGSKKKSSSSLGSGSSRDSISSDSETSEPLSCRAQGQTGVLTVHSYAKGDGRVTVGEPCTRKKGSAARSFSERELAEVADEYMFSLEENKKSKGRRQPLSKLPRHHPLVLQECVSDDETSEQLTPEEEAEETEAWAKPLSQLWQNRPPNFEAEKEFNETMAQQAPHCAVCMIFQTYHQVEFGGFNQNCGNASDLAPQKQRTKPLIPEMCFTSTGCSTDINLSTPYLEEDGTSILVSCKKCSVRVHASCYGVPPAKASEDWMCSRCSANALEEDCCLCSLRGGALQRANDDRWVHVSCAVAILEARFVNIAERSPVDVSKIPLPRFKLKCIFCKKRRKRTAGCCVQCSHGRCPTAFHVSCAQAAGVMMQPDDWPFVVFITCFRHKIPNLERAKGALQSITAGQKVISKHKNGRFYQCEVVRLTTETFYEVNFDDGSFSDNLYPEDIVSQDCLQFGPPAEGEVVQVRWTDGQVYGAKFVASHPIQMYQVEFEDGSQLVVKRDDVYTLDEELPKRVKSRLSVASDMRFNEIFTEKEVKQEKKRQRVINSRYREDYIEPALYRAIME
Experiment: qHTS Assay for Inhibitors of JMJD2A-Tudor Domain; further: nearly all actives have a fitted effect of over 50% in size
Settings: AlphaScreen JMJD2A-Tudor / H3K4me3 peptide binding; activity change, negative = inhibition: at 114 µM (top of the series)
On the % scale 0 is the no-effect control and ±100 the full control effect; potency means the concentration at half of the fitted maximal effect; tags describe the fitted curve by direction and shape.

Row | Compound | activity change, negative = inhibition | Potency
1 | COc1ccc(S(=O)(=O)N2CCCC(C(=O)NCCN3CCOCC3)C2)cc1C (stereo not given) | inactive: -17.9% | 
2 | CCc1ccccc1N(CC)C(=O)c1c(C)oc2ncnc(N3CCOCC3)c12 | inactive: -29.8% | 
3 | Cc1nc(C)c(N)c(=O)[nH]1 | inactive: -9.02% [at 11.4 µM] | 
4 | Cc1cc(/C=N/NC(=O)c2ccc(CN3CCOCC3)cc2)c(C)n1-c1ccccc1 |  | inconclusive: 56.2 µM [inhibitor, partial curve]
5 | Nc1nc(Nc2ccccc2)nc(N2CCCC2)c1[N+](=O)[O-] |  | inconclusive: 39.8 µM [inhibitor, full curve, poor fit]
6 | O=C(NCCc1ccccc1)c1nc2nc(-c3cccs3)cc(C(F)(F)F)n2n1 |  | inconclusive: 89.1 µM [inhibitor, partial curve]
7 | COC(=O)COc1ccc(NC(=O)Cn2nc(-c3ccccc3)c3ccccc3c2=O)cc1 |  | inconclusive: 25.1 µM [inhibitor, full curve]
8 | COc1ccc(NC(=O)CSc2nc3ccccc3n2-c2ccccc2)c([N+](=O)[O-])c1 |  | inconclusive: 22.4 µM [inhibitor, partial curve]
9 | CCc1ccccc1N(C(=O)c1snc(C(N)=O)c1N)C(C(=O)NCC1CCCO1)c1ccc(C)o1 (stereo not given) | inactive: -4.01% | 
10 | COc1ccc(Cl)cc1NC(=O)c1cccc([N+](=O)[O-])c1O |  | inconclusive: 89.1 µM [inhibitor, partial curve, poor fit]
11 | CC(CCc1ccccc1)NCc1cccc2ccccc12 (stereo not given) |  | active: 25.1 µM
12 | Cc1ccccc1NC(=O)CSc1ccc(-c2ccco2)nn1 | inactive: -26.4% | 
13 | COc1ccc2[nH]c3c(c2c1)CCN1C(=O)C(CC(=O)NCCC2=CCCCC2)C[C@H](C(=O)N2CCCCC2)[C@@]31C (stereo not given in full) |  | inconclusive: 63.1 µM [inhibitor, partial curve, poor fit]
14 | C/C(=N\NC(=S)NC(C)C)c1ccc2c(c1)OCCO2 |  | inconclusive: 39.8 µM [inhibitor, full curve, poor fit]
15 | CC1(OC(=O)c2ccc(Cl)nc2)C(=O)C=C2C=C3CCCN3C=C2C1=O (stereo not given) |  | active: 44.7 µM
16 | O=C(O)/C=C/C(=O)c1ccc2c(c1)NC(=O)CO2 | inactive: -12% | 
17 | COc1ccc(-c2csc(N(CCCN3CCOCC3)C(=O)CCl)n2)cc1 |  | inconclusive: 56.2 µM [inhibitor, partial curve]
18 | COc1ccc(/C=N/n2cncn2)cc1COc1ccc(NC(C)=O)cc1 |  | active: 50.1 µM
19 | Cc1noc(C)c1-c1csc(N2CCC(C(N)=O)CC2)n1 |  | inconclusive: 79.4 µM [inhibitor, partial curve]
20 | CCN(CC)S(=O)(=O)c1cccc(-c2nnc(SCC(=O)NC3CCCCCC3)n2N)c1 | inactive: -16.3% | 
21 | CC(C)(C)c1ccc(C(=O)NCC(c2cccs2)S(=O)(=O)c2ccccc2)cc1 (stereo not given) | inactive: -12% | 
22 | O=C1C2CCCN2C(c2ccc(F)cc2)N1c1nccs1 (stereo not given) |  | active: 20 µM
23 | Cc1ccc(C)c(OCCCCn2ccnc2)c1 |  | inconclusive: 89.1 µM [inhibitor, partial curve]
24 | CCc1ccc(CNC(=O)c2ccc(NC(=O)N3CC(C)Sc4ccccc43)cc2)cc1 (stereo not given) | inactive: -7.72% | 

Row | Compound | activity change, negative = inhibition | Potency
25 | CCc1nnc(SCc2cc(C)ccc2C)c2cc3sc(C)cc3n12 | inactive: 2.56% | 
26 | COc1cc(CN(C)CCc2ccccn2)cc(OC)c1OC |  | active: 7.94 µM
27 | Cc1ccc(S(=O)(=O)/N=C2/C=C(C3C(=O)CC(C)(C)CC3=O)C(=O)c3ccccc32)cc1 |  | inconclusive: 89.1 µM [inhibitor, single point]
28 | CC(=NNC(=S)N1CCCCCC1)c1cccc2cccnc12 |  | active: 20 µM
29 | Cc1ccc2c(c1)-c1cc(C)nn1C(c1cc(Br)ccc1O)N2 (stereo not given) | inactive: -11% | 
30 | COc1cc(C(=O)NCC(=O)OCC(=O)c2cccc3ccccc23)cc(OC)c1OC | inactive: -4.47% | 
31 | COc1cc(OC)c(OC)cc1/C=C/c1nc2cc3ccccc3cc2c(=O)n1-c1ccc(F)cc1F |  | inconclusive: 15.8 µM [inhibitor, partial curve]
32 | CC(C)CSc1nc2c(c(=O)[nH]c(=O)n2C)n1CCc1ccccc1 | inactive: -18% | 
33 | CC(=O)N1CCc2c(sc(NC(=O)Cc3ccc(C)cc3C)c2C#N)C1 |  | inconclusive: 14.1 µM [inhibitor, full curve]
34 | N#Cc1c(-c2ccccc2)c(-c2ccccc2)nn(CC(=O)NNC(=O)Nc2ccc(Cl)c(Cl)c2)c1=O |  | inconclusive: 39.8 µM [inhibitor, partial curve]
35 | CC(C)c1ccc(CN2CCSCC2)cc1 |  | active: 2.82 µM
36 | Cc1cccc(-n2c(=S)[nH]c3sc4c(c3c2=O)CCc2ccccc2-4)c1 |  | inconclusive: 79.4 µM [inhibitor, partial curve]
37 | COc1cccc(Cn2cc(/C=N/NC(=O)c3cc(O)cc(O)c3)c3ccccc32)c1 |  | inconclusive: 89.1 µM [inhibitor, partial curve]
38 | Cc1cc([N+](=O)[O-])c(NCCCCCCO)c([N+](=O)[O-])c1 |  | inconclusive: 50.1 µM [inhibitor, partial curve]
39 | COc1ccccc1NC1CCCCC1NS(=O)(=O)c1ccc(C)cc1 (stereo not given) |  | inconclusive: 39.8 µM [inhibitor, partial curve]
40 | CCN(CC)S(=O)(=O)c1ccc(N2CCN(c3ccccc3OC)CC2)c(N)c1 |  | inconclusive: 56.2 µM [inhibitor, partial curve]
41 | CCOc1cc(NC(=O)C2CCCCC2)c(OCC)cc1NC(=O)c1ccccn1 | inactive: -7.64% | 
42 | CC(=O)c1cc(C#N)c(NCCCN(C)C)nc1C | inactive: -4.93% | 
43 | COC(=O)N/N=C/c1sc(N2CCCCC2)nc1-c1cccs1 |  | inconclusive: 56.2 µM [inhibitor, partial curve]
44 | Cn1c(=O)[nH]c(=O)c2c1nc(SCCO)n2CCCc1ccccc1 | inactive: -16.5% | 
45 | O=C(CN1CCN(Cc2ccc(F)cc2)C1=O)NCc1ccccc1Cl |  | inconclusive: 112 µM [inhibitor, single point]
46 | S=C(Nc1cccc2ccccc12)NC1CCCCC1 |  | inconclusive: 56.2 µM [inhibitor, partial curve]
47 | COc1ccc(C2CC3(CC(C)(C)NC(=S)N3)Oc3cc(O)cc(C)c32)cc1OC (stereo not given) |  | inconclusive: 100 µM [inhibitor, partial curve, poor fit]
48 | O=C(c1cccc(F)c1)N1CCCC(C(=O)N2CCCCCC2)C1 (stereo not given) | inactive: -2.68% | 

Row | Compound | activity change, negative = inhibition | Potency
49 | COC(=O)c1ccccc1NC(=O)C1=CC(c2ccc(C)cc2)=NS(=O)(=O)N1C |  | inconclusive: 31.6 µM [inhibitor, partial curve]
50 | O=C(NC(=S)Nc1ccccc1N1CCOCC1)c1ccc(Br)cc1 |  | inconclusive: 50.1 µM [inhibitor, partial curve]
51 | O=C(c1cc([N+](=O)[O-])ccc1N1CCCCC1)N1CCc2ccccc21 |  | inconclusive: 31.6 µM [inhibitor, partial curve]
52 | O=C1NN(c2ccc(F)c(Cl)c2)C(=O)/C1=C\c1cccc(OC(=O)c2cccs2)c1 |  | active: 79.4 µM
53 | COc1ccc(/C=N/Nc2ncnc3sc(C)c(C)c23)cc1 |  | inconclusive: 31.6 µM [inhibitor, full curve]
54 | CCOC(=O)c1c(CSC(=N)N)n(-c2ccccc2)c2cc(Br)c(OC(C)=O)cc12 |  | inconclusive: 35.5 µM [inhibitor, partial curve]
55 | CCc1nn2c(=O)cc(COc3ccc(/C=C4\C(=N)N5N=C(CC(C)C)SC5=NC4=O)cc3)nc2s1 |  | active: 44.7 µM
56 | C/C(=N\NC(N)=S)c1cc(-c2ccccc2)c(-c2ccccc2)s1 |  | inconclusive: 50.1 µM [inhibitor, partial curve]
57 | CC(=O)N1CCN(c2ccc(NCc3ccc(F)cc3)cc2)CC1 |  | inconclusive: 12.6 µM [inhibitor, partial curve]
58 | CSc1cccc(NC(=S)N2CCCN(Cc3ccc(F)cc3)C2)c1 |  | inconclusive: 22.4 µM [inhibitor, single point]
59 | COc1ccc(N(CC(=O)N2CCOCC2)S(C)(=O)=O)c(OC)c1 |  | inconclusive: 31.6 µM [inhibitor, partial curve]
60 | COc1ccccc1/C=C/c1nc(S(=O)(=O)c2ccccc2)c(N(C)C)o1 |  | inconclusive: 89.1 µM [inhibitor, single point]
61 | COc1ccc(Cc2n[nH]c(=S)n2N)cc1OC |  | active: 7.94 µM
62 | CCOc1ccc2cc(C#N)c(SCC(=O)N3CCOCC3)nc2c1 | inactive: -18% | 
63 | C=CCc1cccc(C2Nc3ccccc3C(=O)N2O)c1O (stereo not given) |  | inconclusive: 89.1 µM [inhibitor, single point]
64 | Cc1cc(N=Cc2c(O)ccc3cc(Br)ccc23)no1 |  | active: 1.78 µM
65 | C#CCOCCOCCOCCNc1nc(N2CCN(C(=O)[C@H](CCCN=C(N)N)n3cc(C(N)[C@@H](C)CC)nn3)CC2)nc(N2CCN(C(=O)[C@H](CCCCN)n3cc([C@@H](N)CC(N)=O)nn3)CC2)n1 (stereo not given in full) |  | active: 89.1 µM
66 | COc1cc(/C=N/N=C(\N)c2nonc2N)cc(OC)c1O |  | inconclusive: 39.8 µM [inhibitor, full curve]
67 | Cc1ccc(NC2CCCN(C(=O)c3cccc(-c4ncc[nH]4)c3)C2)cc1C (stereo not given) |  | inconclusive: 63.1 µM [inhibitor, partial curve, poor fit]
68 | COC(=O)CN1C(=S)N(c2ccc(Cl)cc2)C(=O)C1CC(=O)Nc1ccc(Cl)cc1 (stereo not given) | inactive: -5.26% | 
69 | CC1CCCCC1NC(=O)COC(=O)c1ccc2c(c1Cl)C(=O)c1ccccc1C2=O (stereo not given) |  | inconclusive: 35.5 µM [inhibitor, partial curve]
70 | Cc1cccc(-c2nc3c(c(SCC(=O)N4CCOCC4)n2)Cc2c(CO)cnc(C)c2O3)c1 |  | inconclusive: 50.1 µM [inhibitor, partial curve]
